Reference: the supplement of paper PMC12645437, “Orthogonal IMiD-Degron Pairs Induce Selective Protein Degradation in Cells” (ACS Chemical Biology, 2025)
The other results are listed elsewhere or left out.

molecular target: no compound (DMSO); test: log2 fold change of degron read counts, EGFP-low vs EGFP+ sorted cells; higher = lower degron-EGFP level without compound (poor expression or instability); details: compound: DMSO control; 18 h
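Further: jurkat cells carrying a lentiviral library of mutant zinc finger degrons fused to EGFP plus mCherry, mCherry+ cells FACS sorted, degron abundance counted by next-generation sequencing.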

Sequence	log2 fold change of degron read counts
FVCPQCGANFTQKGNLLRHIKL	-1.22
FGCNQCGRDFTQKGNLLRHIKL	0.779
FICPICGAHFTQKGNLLRHIKL	-0.237
FYCNVCGAMFTQKGNLLRHIKL	-0.265
FICPICGHRFTQKGNLLRHIKL	-0.409
LACEICGFPCTQKGNLLRHIKL	-0.308
LICNQCGFDCTQKGNLLRHIKL	-0.909
FSCNICGATFTQKGNLLRHIKL	-0.215
FRCNICGADFTQKGNLLRHIKL	-0.986
FHCNQCGAIFTQKGNLLRHIKL	-0.284
FMCPICGALFTQKGNLLRHIKL	0.43
FGCPICGAPFTQKGNLLRHIKL	0.399
FSCEVCGAWFTQKGNLLRHIKL	-0.547
FFCEICGHVFTQKGNLLRHIKL	-0.664
LVCPICGFYCTQKGNLLRHIKL	1.46
FICNQCGRNFTQKGNLLRHIKL	-0.762
FDCEQCGAMFTQKGNLLRHIKL	-1.54
LHCEICGFDCTQKGNLLRHIKL	-0.332
LMCEICGFRCTQKGNLLRHIKL	0.53
LSCEICGFVCTQKGNLLRHIKL	-0.574
LACNQCGFDCTQKGNLLRHIKL	0.0552
FFCEQCGARFTQKGNLLRHIKL	-1.19
FWCPICGAFFTQKGNLLRHIKL	2.64
FQCDVCGATFTQKGNLLRHIKL	-1.94
FGCEICGHIFTQKGNLLRHIKL	0.45

Sequence	log2 fold change of degron read counts
FRCEICGAFFTQKGNLLRHIKL	-0.787
FWCPVCGAQFTQKGNLLRHIKL	0.311
FECDVCGADFTQKGNLLRHIKL	-3.06
FRCEVCGAKFTQKGNLLRHIKL	-1.4
FFCDICGAKFTQKGNLLRHIKL	-0.514
FFCNQCGRVFTQKGNLLRHIKL	0.428
FYCEICGAYFTQKGNLLRHIKL	0.182
FFCNVCGALFTQKGNLLRHIKL	0.793
FHCNQCGAYFTQKGNLLRHIKL	-0.158
FWCPICGRWFTQKGNLLRHIKL	1.69
LHCNQCGFCCTQKGNLLRHIKL	0.113
FRCDVCGARFTQKGNLLRHIKL	-1.65
FCCEICGRRFTQKGNLLRHIKL	-1.6
FHCDICGANFTQKGNLLRHIKL	-1.19
FFCNQCGRGFTQKGNLLRHIKL	0.241
FFCPVCGAVFTQKGNLLRHIKL	0.298
FKCEICGHEFTQKGNLLRHIKL	-2.05
FHCDQCGANFTQKGNLLRHIKL	-2.04
FFCPICGAGFTQKGNLLRHIKL	0.0109
FTCEICGRSFTQKGNLLRHIKL	-1.06
FTCPICGRCFTQKGNLLRHIKL	-0.359
FVCPICGHDFTQKGNLLRHIKL	-0.195
FRCDQCGAAFTQKGNLLRHIKL	-1.64
FYCPICGRTFTQKGNLLRHIKL	-0.109
FRCNQCGHEFTQKGNLLRHIKL	-1.03
